In PubChem BioAssay AID493035 (The Scripps Research Institute Molecular Screening Center, 2011):
Values joined by “and” are separate entries in the source; they are usually repeats but may differ in a detail not shown here. Equal entries are not always repeated. Screen size: about 2,000 compounds; about 45 (2%) were called active.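 How the source made its calls: active means inhibition above the mean of all tested compounds plus 3 SD (cut at about 49% in these data); inactive means the rest.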 The list shows a part of the results.

biological target: Perilipin-5 (Homo sapiens) + 1-acylglycerol-3-phosphate O-acyltransferase ABHD5 (Homo sapiens) (UniProt Q00G26+Q8WTS1); test: ABHD5-PLIN5 interaction inhibitors, pilot screen, cell lysate, split luciferase complementation, luminescence, NIH validation set (AID 493035);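 further: 0% = DMSO only wells while the 100% control is not stated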; conditions: split G. princeps luciferase complementation, lysates, 4 h; at 7.9 µM, active compounds read high
Sequence of UniProt Q00G26 (Q00G26 whole entry, looked up): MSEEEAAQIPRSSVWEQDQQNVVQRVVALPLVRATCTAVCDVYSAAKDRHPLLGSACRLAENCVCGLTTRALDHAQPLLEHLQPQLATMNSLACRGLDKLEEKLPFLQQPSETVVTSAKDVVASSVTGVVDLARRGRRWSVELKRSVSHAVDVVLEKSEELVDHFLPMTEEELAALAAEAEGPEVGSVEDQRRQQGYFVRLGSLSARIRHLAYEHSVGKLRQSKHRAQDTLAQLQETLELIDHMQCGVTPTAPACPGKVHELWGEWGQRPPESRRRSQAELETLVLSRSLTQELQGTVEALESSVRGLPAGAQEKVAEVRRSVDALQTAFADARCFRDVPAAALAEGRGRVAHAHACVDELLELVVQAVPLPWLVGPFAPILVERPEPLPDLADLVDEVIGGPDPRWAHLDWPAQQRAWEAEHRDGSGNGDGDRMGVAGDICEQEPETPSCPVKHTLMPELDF
Sequence of UniProt Q00G26 (Q8WTS1 whole entry, looked up): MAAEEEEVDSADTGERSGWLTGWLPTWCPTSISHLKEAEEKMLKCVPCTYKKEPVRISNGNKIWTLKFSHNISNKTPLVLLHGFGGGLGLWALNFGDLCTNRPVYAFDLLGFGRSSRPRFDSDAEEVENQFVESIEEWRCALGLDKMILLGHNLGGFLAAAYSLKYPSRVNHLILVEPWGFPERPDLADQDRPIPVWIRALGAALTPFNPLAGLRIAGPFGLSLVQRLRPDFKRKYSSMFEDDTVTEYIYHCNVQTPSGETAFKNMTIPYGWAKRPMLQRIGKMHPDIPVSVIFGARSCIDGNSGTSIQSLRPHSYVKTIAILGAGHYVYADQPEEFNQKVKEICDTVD

inhibition, inactive:
N#CCC(N)=C(C#N)C#N -2.18%
CCN(CC)CCOC(=O)C1(C2CCCCC2)CCCCC1 -14.8%
CN(C)CCCN1c2ccccc2Sc2ccc(C(F)(F)F)cc21 -26.9%
Cc1ccc2c(c1)c1c(n2C)C(=O)CCC1 0.25%
COc1ccc(C(=O)NCC2OCCc3ccccc32)cc1 (configuration not stated) -9.11%
CCCCN(CCCC)CCCOC(=O)c1ccc(N)cc1 -0.44%
O=C(NCc1ccc2c(c1)OCO2)c1ccc2c(c1)OCCO2 -3.72%
O=C(O)CCCCCCCC(=O)O -1.68%
O=C(NC(=S)Nc1ccc2c(c1)OCCO2)c1ccccc1F -6.48%
NS(=O)(=O)c1cc(C2(O)NC(=O)c3ccccc32)ccc1Cl (configuration not stated) 12.6%
CC(=O)Nc1ccc(OS(=O)(=O)c2c(C)cc(C)cc2C)cc1 -5.69%
COc1ccc(NC(=O)C2CCCN2C(=O)OC(C)(C)C)cc1 (configuration not stated) -12.9%
CC(=O)OCC(=O)[C@@]1(O)CC[C@H]2[C@@H]3CCC4=CC(=O)CC[C@]4(C)[C@H]3[C@@H](O)C[C@@]21C 1.35%
CC[N+](C)(C)c1cccc(O)c1 0.72%
COc1ccc2oc(C)c(C(N)=O)c2c1 -3.38%
CN1CCN(CC/C=C2/c3ccccc3Sc3ccc(S(=O)(=O)N(C)C)cc32)CC1 -14.3%
CN1CCC(=C2c3ccccc3C=Cc3ccccc32)CC1 -4.36%
Cn1cc(CN(CCO)Cc2cccs2)c(-c2cccc(Cl)c2)n1 -9.26%
CCCc1cc(C(N)=S)ccn1 1.88%
Cc1ccc2[nH]c3c(c2c1)CN(C)CC3 3.97%
CC(C)CCOCC(=O)Nc1cccc(C(=O)O)c1 -0.57%
CC(=O)c1cc2c(cc1NC(=O)c1ccco1)OCCO2 -5.01%
CC(=O)OC(CC(=O)O)C[N+](C)(C)C (configuration not stated) -14.8%
CC1(C)Cc2ccccc2C(C(Cc2ccccc2)C(N)=O)=N1 (configuration not stated) -3.97%
CCOC(=O)/C=C1\NC(C)(C)Cc2cc(OC)c(OC)cc21 1.87%
CC12CN3CC(C)(CN(C1)C3c1ccc(Br)cc1O)C2 (configuration not stated) 4.72%
O=S(=O)(NCCCCCNS(=O)(=O)c1ccccc1)c1ccccc1 -0.28%
CCc1ccc(/C=C2\SC(=S)N(CCC(=O)N3CCN(C)CC3)C2=O)cc1 -12.7%
COC(=O)c1cc(=O)c2ccc(OC)cc2o1 -10.2%
Cc1cccc(C)c1NS(=O)(=O)c1ccc(NC(=O)c2ccc(Cl)c([N+](=O)[O-])c2)cc1 29.4%
COc1cc(CNCCc2ccccc2F)ccc1OCC(=O)N1CCCCC1 -13.4%
CC(O)Cn1cnc2c1c(=O)n(C)c(=O)n2C (configuration not stated) 1.51%
O=C(NC(=S)N1CCCCC1)c1cccnc1 0.95%
NS(=O)(=O)c1cc2c(cc1C(F)(F)F)NCNS2(=O)=O 1.5%
CC(C)C12CN3CC(C(C)C)(CN(C1)C3c1ccccc1O)C2=O (configuration not stated) 0.76%
O=C(N/N=C\c1cc([N+](=O)[O-])ccc1N1CCOCC1)c1ccccn1 1.87%
Cc1cn([C@H]2C=C[C@@H](CO)O2)c(=O)[nH]c1=O -0.42%
CCOc1ccc(C(=O)N2CCCC2C(=O)O)cc1 (configuration not stated) -2.92%
CC(=O)NS(=O)(=O)c1ccc(N)cc1 7.18%
O=C1CC(c2ccc(O)cc2)Oc2cc(O)cc(O)c21 (configuration not stated) -10.9%
Cn1cc(CN2CCCC(CO)(Cc3cccc(Cl)c3)C2)cn1 (configuration not stated) -10.5%
CCOC(=O)COc1ccc2c(=O)c(-c3ccccc3)coc2c1 -0.22%
NC(N)=NC(=O)c1nc(Cl)c(N)nc1N 5.53%
COc1ccc(Cc2noc(CN(C)CCN3CCc4ccccc4C3)n2)cc1OC -5.39%
CC(=O)CCc1oc2ccccc2c1-c1ccccc1 -0.95%
CC(C)C12CN3CC(C(C)C)(CN(C1)C31C(=O)Nc3ccccc31)C2=O (configuration not stated) -5.17%
CC(=O)CSc1ncnc2c1cnn2-c1ccccc1 8.43%
CCN(CC)CC(=O)Nc1c(C)cccc1C -0.3% and 2.05%
COc1ccc(C(=O)CC2OC(=O)c3c2ccc(OC)c3OC)cc1 (configuration not stated) 1.87%
CC(=O)OCC(=O)[C@@]12OC(C)(C)O[C@@H]1C[C@H]1[C@@H]3C[C@H](F)C4=CC(=O)C=C[C@]4(C)[C@@]3(F)[C@@H](O)C[C@@]12C 1.9%
COc1ccc(/C=C\c2cc(OC)c(OC)cc2CC[N+](C)(C)C)cc1OC -2.45%
c1ccc2c(CC3=NCCN3)cccc2c1 -3.21%
COc1ccc(C(=O)NC(=O)NC2(C(Cl)(Cl)Cl)OCCO2)cc1 -14.8%
Cc1ccc(CSCC(=O)NCCCN2CCOCC2)cc1 2.33%
O=[N+]([O-])c1ccc2cn[nH]c2c1 -0.39%
CC(=O)C1=C(Nc2ccc(C)cc2)CC(C)(O)C(C(C)=O)C1c1ccco1 (configuration not stated) 13.9%
CCn1c(=N)c(C(=O)NC)cc2c(=O)n3cccc(C)c3nc21 -14.8%
CC(C)C12CN3CC(C(C)C)(CN(C1)C3c1ccccc1)C2O (configuration not stated) -7.93%
OCCN(CCO)c1nc(N2CCCCC2)c2nc(N(CCO)CCO)nc(N3CCCCC3)c2n1 9.95%
Cc1ccc(C2CC(=O)C(C=NCCN3CCN(CC(=O)Nc4cc(C)cc(C)c4)CC3)=C(O)C2)cc1 (configuration not stated) -1.4%
O=C(O)c1ccc(-c2ccc(O)c(F)c2)cc1 -3.97%
Cc1cc(=O)oc2c(CN(C)Cc3ccccc3)c(O)ccc12 -4.14%
NC(=O)C1CCCNC1 (configuration not stated) -20.4%
CC(C)COC(=O)C1C(=O)CC(C)(O)C(C(=O)OCC(C)C)C1c1cccnc1 (configuration not stated) 1.33%
CCCCOn1c(C)c(C(C)=O)c2c3no[n+]([O-])c3ccc21 -1.85%
Nc1nc(Cl)nc2c1ncn2[C@@H]1O[C@H](CO)[C@@H](O)[C@H]1O -3.55%
CCOC(=O)c1oc2cc(O)cc(C)c2c(=O)c1-c1cscn1 0.62%
COc1ccc(N2C(=O)C3C(C2=O)C(C(=O)c2ccccc2)N2CCCC32)cc1 (configuration not stated) 21.4%
COc1cccc(C2CCCN2Cc2nc(CCC(C)C)no2)c1 (configuration not stated) -10.5%
O=C1N[C@@H](Cc2cnc[nH]2)C(=O)N2CCC[C@@H]12 -13.3%
C[C@@H]1C[C@H]2[C@@H]3CCC4=CC(=O)C=C[C@]4(C)[C@@]3(F)[C@@H](O)C[C@]2(C)[C@@]1(O)C(=O)COP(=O)(O)O -13.3%
CC(=O)C1=C(NC(=O)c2ccc(C(F)(F)F)cc2)C[C@@H]2[C@H]1C2(C)C -15.1%
COc1ccc(CC(=O)Nc2cccc(C(=O)Nc3ccccc3C(=O)O)c2)cc1OC 0.92%
CC(C)(C)N1NC2(CCCCC2)NC1=S 6.12%
O=C(O)C1CSC(c2ccco2)N1 (configuration not stated) 26.7%
COc1ccc(-c2cc(=O)oc3cc(OC(C)C(=O)O)ccc23)cc1 (configuration not stated) 1.1%
Cc1c(Cc2ccccc2)c(=O)oc2c(CN(C)C)c(O)c(Cl)cc12 9.82%
CC(C)CC(NC(=O)CNC(=O)C1O[C@@H]2OC(C)(C)O[C@@H]2[C@H]2OC(C)(C)O[C@@H]12)C(=O)O (some centres not stated) 5.95%
COC(=O)[C@H]1[C@H]2C[C@@H]3c4[nH]c5cc(OC)ccc5c4CCN3C[C@H]2C[C@@H](OC(=O)c2ccc(N)cc2)[C@@H]1OC 26.7%
COc1ccc2c(C=O)cn(C)c2c1 -3.79%
CSCC[C@H](NC(=O)NC1CCCC1)C(=O)O 3.47%
CC1(C)NC(C(=O)O)Cc2c1[nH]c1ccccc21 (configuration not stated) -10.4%
COc1ccc2cc(-c3nc4ccccc4n3C)c(=O)oc2c1 -5.19%
O=C(Nc1ccccc1)OCC1CCCN2CCCCC12 (configuration not stated) -3.5%
COc1cc(C2C(C(C)=O)=C(O)C(=O)N2c2ccc(C)cc2)ccc1O (configuration not stated) 1.35%
CC(C)=CCC/C(C)=C/CC/C(C)=N/O -2.69%
COC(=O)C1[C@H]2C(=O)N(Cc3cccs3)C[C@]23C=C[C@H]1O3 (some centres not stated) -1.7%
CC(C)OC(=O)C(C)(C)Oc1ccc(C(=O)c2ccc(Cl)cc2)cc1 -6.77%
CC(C)NC(=O)C1(c2ccccc2)CCOCC1 -1.27%
COc1cccc(/C=C/C(=O)c2c(O)cc(C)oc2=O)c1O 44.4%
COc1ccccc1/C=C/C(=O)c1c2c(c(C)[nH]c1=O)CCCC2 40.9%
CCN1C(=O)C(CC(=O)Nc2ccc(F)cc2)N(Cc2ccc3c(c2)OCO3)C1=S (configuration not stated) -0.32%
CN(C)CCOc1ccc(Cl)cc1C(C)(C)C -8.58%
CC(=O)c1c(C)[nH]c(C(=O)OCc2ccccc2)c1C -8.43%
CCc1cc(=O)oc2cc(C)c(CN3CCCC(C)C3)c(O)c12 (configuration not stated) 15.1%
COC(=O)CCC(=O)CN 1.69%
N#C/C(=C\c1ccc(O)c(O)c1)C(=O)NCCCc1ccccc1 28.2%
